# PubChem BioAssay AID485344 (National Center for Advancing Translational Sciences (NCATS), 2010)
# “And” between values parts separate entries of the source, which are not always exact repeats. Equal entries are not always repeated. Out of some 340,000 compounds screened, about 6,900 (2%) were called active. No stated cut-off is given here; in the data, active means inhibition above about 30%; inactive means below that, where a call was filed. The list shows a part of the results, in another mix than the full data. Where no call is shown, the source filed none.
# Molecular target: D(2) dopamine receptor (Homo sapiens) (UniProt P14416)
# Assay: HTS Assay for Allosteric Antagonists of the Human D2 Dopamine Receptor: Primary Screen for Antagonists; further: 0% is about no effect
# Conditions: HEK293 TREx D2 cells, calcium flux, dopamine EC80; at 10 µM; stronger effect = higher value
# Method in brief: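 Compounds are added to dye-loaded, induced HEK293 T-REx cells coupled to calcium release via D2; after a 3 min kinetic read an EC80 dopamine stimulus is given and fluorescence is recorded for 3 more min.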
# UniProt P14416, sequence (P14416 whole entry, looked up): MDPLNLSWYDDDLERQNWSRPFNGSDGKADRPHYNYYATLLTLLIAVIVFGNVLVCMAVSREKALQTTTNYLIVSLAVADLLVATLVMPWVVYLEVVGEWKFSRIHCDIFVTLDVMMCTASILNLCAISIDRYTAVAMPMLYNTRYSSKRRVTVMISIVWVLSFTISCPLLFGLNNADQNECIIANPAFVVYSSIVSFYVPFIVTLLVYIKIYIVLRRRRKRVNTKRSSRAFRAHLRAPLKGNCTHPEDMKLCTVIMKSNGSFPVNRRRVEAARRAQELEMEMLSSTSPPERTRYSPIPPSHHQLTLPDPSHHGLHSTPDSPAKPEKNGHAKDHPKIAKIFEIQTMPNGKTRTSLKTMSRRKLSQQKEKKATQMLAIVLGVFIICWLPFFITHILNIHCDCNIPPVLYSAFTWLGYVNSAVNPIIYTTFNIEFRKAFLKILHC
row,Structure (SMILES),inhibition
1,Cc1ccc(CNC(=O)c2nc(-c3ccc(Cl)cc3)n3c2CCCCC3)cc1,-5.82%
2,COc1ccc(CCNC2CCc3ccccc3C2)cc1 (stereo not given),active: 81%
3,Cc1ccccc1C(=O)Nc1nnc(S(=O)(=O)N(C)Cc2ccc(Cl)cc2)s1,-5.48%
4,COc1ccc(CNC(=O)COC(=O)c2n[nH]c3ccccc23)cc1OC,active: 30.3%
5,O=C(Cc1ccc(F)cc1)N1CCC(c2nc3c(nnn3Cc3ccc(F)cc3)c(=O)[nH]2)CC1,14.9%
6,COc1ccc(OCC(=O)Nc2ccc(O)c(-c3nc4ccccc4s3)c2)cc1,5.91%
7,O=C(NCCSCc1ccccc1Cl)C1CCN(S(=O)(=O)Cc2ccccc2)CC1,-2.92%
8,COc1cc2c(C(=O)Nc3ccc(C)cc3Br)cn(C)c(=O)c2cc1OC,-9.1%
9,CCOC(=O)c1ccc(NC2=CC(c3ccc(O)c(OCC)c3)N(c3ccc(C(=O)OCC)cc3)C2=O)cc1 (stereo not given),2.74%
10,CC(C)OC(=O)C1C(=O)CC(C)(O)C(C(=O)OC(C)C)C1c1cccc(O)c1 (stereo not given),active: 31.8%
11,CCCN1CCN(CCNC(=O)Nc2cc(C)ccc2OC)CC1,-20.9%
12,CCOc1ccccc1NC(=O)c1sc2nc(-c3ccc(OC)cc3)ccc2c1N,-7.78%
13,CCC1CCCCN1CCCNC(=O)c1c(O)nc2c(C)cccn2c1=O (stereo not given),5.96%
14,COc1ccc(-n2c(/C=C/c3cccc4ccccc34)nc3ccccc3c2=O)cc1Cl,-8.5%
15,CCCCNc1nc(Oc2ccc(OCCC)nn2)nc(N(C)C)n1,0.256%
16,COc1ccc(OC)c(CCNC(=O)CN2C(=O)COc3ccc(S(=O)(=O)N4CCC(C)CC4)cc32)c1,-4.52%
17,COc1ccc(CC(=O)Nc2c(C(=O)Nc3ccc(F)cc3)oc3ccccc23)cc1OC,1.49%
18,Cc1nn(-c2ccc(N3CCCC3)nn2)c(C)c1CCC(=O)NCc1ccccc1F,-4.19%
19,O=C(CCSCc1ccccc1F)N1CCN(c2ccc(Cl)cc2)CC1,-8.18%
20,O=C(c1ccccc1)n1nc(-c2ccco2)nc1NCc1cccs1,-1.47%

row,Structure (SMILES),inhibition
1,Cc1ccc(Cn2cc(/C=C(/C#N)C(=O)Nc3cccc(Cl)c3)c3ccccc32)cc1,4.74%
2,Cc1ccc(S(=O)(=O)N2CCc3cc(C(=O)Nc4ccc(C)c(C)c4)ccc32)cc1,-19%
3,O=c1cc(-c2ccccc2)nc2cc(-c3ccc(F)cc3)[nH]n12,4.89%
4,CCC(=O)OCc1cnc(C)c2oc(=O)c(C(=O)Nc3ccccc3C(F)(F)F)cc12,-2.92%
5,Cc1cccc(N(C)C(=O)CN(C)S(=O)(=O)c2ccc3[nH]c4c(c3c2)CCCC4)c1,5.79%
6,COc1cc2ccccc2cc1C(=O)Nc1cc(-c2nc3ccccc3o2)ccc1C,-2.19%
7,COc1ccc(CNC(=O)CSc2ncc3c(n2)-c2cc(Cl)ccc2N(Cc2ccccc2)S3(=O)=O)cc1OC,7.99%
8,COc1ccccc1NC(=O)Cn1c(=O)n(CCc2ccccc2)c(=O)c2c3c(sc21)CN(C(C)=O)CC3,11.2%
9,Cc1nnc(SCc2nc(-c3ccc(Cl)cc3)no2)n1-c1ccc(F)cc1,1.31%
10,CCN(CC)C(=O)c1sc2c(c1C)c(=O)n(-c1ccc(C)c(C)c1)c(=O)n2Cc1cc(=O)n2c(C)cccc2n1,-12.2%
11,CCn1c(=O)cc(OCC(=O)NCc2ccccc2Cl)c2ccccc21,-7.42%
12,COc1cccc(CNC(=O)C(NS(=O)(=O)c2ccc3c(c2)oc(=O)n3C)C(C)C)c1 (stereo not given),-4.5%
13,COc1ccc(O)c(C2Nc3ccccc3-n3c(-c4ccccc4)c4c(=O)n(C)c(=O)n(C)c4c32)c1 (stereo not given),20.4%
14,COc1ccc(S(=O)(=O)Nc2cccc(-c3ccc(N4CCCCCC4)nn3)c2)cc1,-7.27%
15,Cc1nnsc1C(=O)Oc1ccc(C(C)C)cc1,-14.2%
16,Cc1cccc(NC(=O)CSc2nc(C3CCCC3)nc3c2c(=O)n(C)c(=O)n3C)c1C,-4.09%
17,Cc1ccc(NC(=O)Cn2c(CCC(=O)O)ccc2-c2ccc(Cl)cc2)cc1,3.22%
18,COC(=O)c1ccc(NC(=O)Cn2nc(C(=O)Nc3ccc(C)cc3)ccc2=O)cc1,-4.97% and active: 30%
19,COc1ccccc1N1CCN(c2ncnc3c2nc2n3CCCC2)CC1,-2.18%
20,Cc1ccc(Cn2cc(CCC(=O)NCc3ccccc3F)c3ccccc32)cc1,-1.03%

row,Structure (SMILES),inhibition
1,CCN(CC)S(=O)(=O)c1ccc2c(c1)N(CC(=O)N(C)Cc1ccccc1)C(=O)CO2,-4.37%
2,O=C(CNC(=O)c1ccc(Cl)cc1)OCc1cc(=O)n2ccsc2n1,15.5%
3,COc1ccc(-c2[nH]c3c(c2-c2c(-n4cccc4)n(C)c(=O)n(C)c2=O)c(=O)n(C)c(=O)n3C)cc1,1.94%
4,CN1CCN(Cc2cc(=O)oc3ccc(Cl)cc23)CC1,active: 44.8%
5,CCCCn1c(Nc2ccccc2)nc2ccccc21,active: 35.8%
6,COc1ccc(C)cc1NC(=O)C(=O)NCC1(c2ccccc2)CCCC1,-5.66%
7,O=C(Nc1nnc(S(=O)(=O)N2CCN(c3ccc(F)cc3)CC2)s1)c1ccc(Cl)cc1,-4.06%
8,CCCCSCCCNC(=O)CN1C(=O)COc2ccc(S(=O)(=O)N3CCC(C)CC3)cc21,2.83%
9,Cc1ccc(C(=O)Nc2ccc(C(=O)OCc3cc(=O)n4ccsc4n3)cc2)cc1,9.18%
10,O=C1c2cccc3c(O)ccc(c23)C(=O)N1Cc1ccccc1,active: 33.8%
11,CCCCOc1ccc(C(=O)N(C)CC(=O)Nc2ccc(C)cc2)cc1,active: 54.7%
12,CC(C)(C)c1ccc(C2NC(=O)c3n[nH]c(-c4cccs4)c32)cc1 (stereo not given),10.4%
13,Cc1cc(C(=O)NCCc2ccc(Cl)cc2)c2c(C)nn(-c3cccc(F)c3)c2n1,-4.44%
14,COC(=O)c1cc2sc(Cl)cc2n1Cc1nc(-c2ccc(OC)cc2)oc1C,6.83%
15,COc1ccc(N(CC(=O)NCCc2cccc(C)c2)S(=O)(=O)c2c(C)noc2C)cc1,8.76%
16,Cc1ccc(NC(=O)CCNCc2ccco2)cc1S(=O)(=O)N(C)C,active: 33.6%
17,COc1cccc(C(=O)Nc2cc3cc(OC)ccc3oc2=O)c1,3.15%
18,Cc1cc(C)c2c(n1)SCCN2C(=O)Nc1ccc(C(=O)Nc2cc(Cl)ccc2C)cc1,4.77%
19,Cn1cc(C(=O)NCc2ccc(Cl)cc2)c(=O)c2cc(S(=O)(=O)N3CCCCCC3)ccc21,-10.5%
20,CCOc1ccccc1N1C(=O)CC(Sc2ncccc2C(=O)O)C1=O (stereo not given),active: 35.6%
